Consider 27 compounds from the antibiotic and cytotoxicity screens of Wong et al. (2023).

The test system of one experiment is HSkMC. The experiment in a line: cytotoxicity call (relative viability < 0.9). Conditions: 10 µM.
Another experiment concerns HepG2. Briefly: cytotoxicity call (relative viability < 0.9). The following applies: 10 µM.
In another experiment the test system is S. aureus RN4220. Briefly: growth inhibition call (relative growth <= 0.2). Conditions: 50 µM.

The list shows a part of the results.

Regarding `C[C@@H]1CCCCO[C@H](CN(C)Cc2ccncc2)[C@H](C)CN([C@@H](C)CO)C(=O)c2cc(NC(=O)Nc3cccc4ccccc34)ccc2O1`, in the experiment on HSkMC, the cytotoxicity call was “inactive”. The cytotoxicity call with HepG2 was “active”. In the experiment with S. aureus RN4220, the growth inhibition call was “inactive”.

`COc1ccc(NC(=O)Nc2ccc3c(c2)CC(=O)N([C@@H](C)CO)C[C@@H](C)[C@@H](CN(C)Cc2ccc(Cl)c(Cl)c2)O3)cc1`: the cytotoxicity call with HSkMC was “inactive”. Moreover, the cytotoxicity call in the experiment with HepG2 is “active”. The growth inhibition call with S. aureus RN4220 is “inactive”.

Turning to `COc1ccc(C#Cc2ccc3c(c2)O[C@@H](CN(C)C(=O)CN2CCOCC2)[C@H](C)CN([C@@H](C)CO)S3(=O)=O)cc1`, the cytotoxicity call in the experiment on HSkMC and with HepG2 was “inactive” throughout. Further, in the experiment on S. aureus RN4220, the growth inhibition call is “inactive”.

In the case of `C[C@@H]1CCCCO[C@@H](CN(C)Cc2ccc(C(F)(F)F)cc2)[C@H](C)CN([C@H](C)CO)C(=O)c2cc(NC(=O)Nc3ccccc3)ccc2O1`, the cytotoxicity call in the experiment on HSkMC and with HepG2 was “active” throughout. In addition, the growth inhibition call in the experiment on S. aureus RN4220 is “inactive”.

In the case of `CSc1nc2ccc(N)cc2s1`, the cytotoxicity call with HSkMC and in the experiment on HepG2 was “inactive” throughout. The growth inhibition call with S. aureus RN4220 was “inactive”.

Take `COc1ccccc1-c1ccc2c(c1)O[C@H](CN(C)C(=O)c1cccnc1)[C@@H](C)CN([C@@H](C)CO)S2(=O)=O`: the cytotoxicity call in the experiment on HSkMC and in the experiment on HepG2 was “inactive” each time. In addition, the growth inhibition call with S. aureus RN4220 was “inactive”.

As to `Cc1noc(C)c1S(=O)(=O)Nc1ccc2c(c1)CC(=O)N([C@H](C)CO)C[C@@H](C)[C@H](CN(C)Cc1ccc(Oc3ccccc3)cc1)O2`, the cytotoxicity call in the experiment with HSkMC and in the experiment on HepG2 was “inactive” throughout. In addition, the growth inhibition call with S. aureus RN4220 is “inactive”.

Turning to `Cc1cccc(NC(=O)Nc2ccc3c(c2)C(=O)N(C)[C@@H]2CC[C@@H](CC(=O)NCc4ccccc4Cl)O[C@H]2CO3)c1`, the cytotoxicity call in the experiment with HSkMC and in the experiment with HepG2 was “inactive” throughout. In addition, the growth inhibition call in the experiment on S. aureus RN4220 was “inactive”.

With `Cc1cc(C)nc(SCC(=O)NN)n1`, the cytotoxicity call in the experiment with HSkMC and in the experiment with HepG2 was “inactive” throughout. Also, the growth inhibition call in the experiment with S. aureus RN4220 is “inactive”.

Regarding `Cc1noc(C)c1NC(=O)Nc1ccc2c(c1)CC(=O)N([C@H](C)CO)C[C@@H](C)[C@H](CN(C)S(=O)(=O)c1c(C)noc1C)O2`, the cytotoxicity call with HSkMC and in the experiment with HepG2 was “inactive” throughout. Further, in the experiment on S. aureus RN4220, the growth inhibition call was “inactive”.

For the compound `Cc1noc(C)c1S(=O)(=O)Nc1ccc2c(c1)C(=O)N([C@@H](C)CO)C[C@H](C)[C@H](CN(C)C(=O)NC(C)C)O2`, the cytotoxicity call in the experiment on HSkMC and with HepG2 was “inactive” throughout. Moreover, the growth inhibition call in the experiment on S. aureus RN4220 is “inactive”.

Regarding `CC(=O)/C(C)=N/O`, the cytotoxicity call in the experiment with HSkMC and in the experiment with HepG2 was “inactive” in each case. Further, the growth inhibition call in the experiment on S. aureus RN4220 is “inactive”.

For the compound `CN1N=C(C(N)=O)CCC1=O`, the cytotoxicity call in the experiment on HSkMC and with HepG2 was “inactive” throughout. The growth inhibition call in the experiment on S. aureus RN4220 is “inactive”.

Regarding `C[C@H]1CN([C@@H](C)CO)C(=O)c2cc(NC(=O)NC3CCCCC3)ccc2O[C@@H]1CN(C)C(=O)Nc1cccc2ccccc12`, the cytotoxicity call with HSkMC and with HepG2 was “inactive” each time. In addition, the growth inhibition call in the experiment on S. aureus RN4220 is “inactive”.

`C[C@@H]1CCCCO[C@@H](CN(C)C(=O)c2ccccc2)[C@@H](C)CN([C@@H](C)CO)C(=O)c2cc(NC(=O)Nc3ccccc3)ccc2O1`: the cytotoxicity call in the experiment on HSkMC and in the experiment on HepG2 was “inactive” throughout. Besides, the growth inhibition call in the experiment on S. aureus RN4220 was “inactive”.

For `C[C@@H]1CN([C@@H](C)CO)S(=O)(=O)c2ccc(C#C[C@@H](C)O)cc2O[C@H]1CN(C)C(=O)Cc1ccccn1`, the cytotoxicity call in the experiment with HSkMC and in the experiment with HepG2 was “inactive” each time. Also, in the experiment with S. aureus RN4220, the growth inhibition call was “inactive”.

Regarding `CN1CCN(C(=O)C[C@H]2CC[C@H](NC(=O)c3ccc4c(c3)OCO4)[C@H](CO)O2)CC1`, the cytotoxicity call in the experiment with HSkMC and in the experiment on HepG2 was “inactive” throughout. In addition, the growth inhibition call in the experiment with S. aureus RN4220 was “inactive”.

For the compound `Cc1noc(C)c1S(=O)(=O)Nc1ccc2c(c1)C(=O)N([C@@H](C)CO)C[C@@H](C)[C@H](CN(C)Cc1ccc(C(=O)O)cc1)O2`, the cytotoxicity call in the experiment with HSkMC and with HepG2 was “inactive” throughout. Besides, in the experiment with S. aureus RN4220, the growth inhibition call was “inactive”.

As to `O=C(C[C@@H]1C=C[C@H](NC(=O)c2cccnc2)[C@H](CO)O1)NCc1ccncn1`, the cytotoxicity call with HSkMC and in the experiment with HepG2 was “inactive” each time. Moreover, the growth inhibition call in the experiment with S. aureus RN4220 was “inactive”.

Turning to `CC(C)(C)NC(=O)C[n+]1cccc(/C=N/O)c1`, the cytotoxicity call with HSkMC and in the experiment on HepG2 was “inactive” in each case. For the same compound, the growth inhibition call in the experiment with S. aureus RN4220 is “inactive”.

Regarding `Cc1nc(C)n(C(=O)N2CCOCC2)n1`, the cytotoxicity call in the experiment on HSkMC and in the experiment with HepG2 was “inactive” each time. The growth inhibition call with S. aureus RN4220 was “inactive”.

Regarding `C[C@@H]1CN([C@H](C)CO)C(=O)Cc2cc(NS(=O)(=O)c3ccc(Cl)cc3)ccc2O[C@H]1CN(C)Cc1ccc(Oc2ccccc2)cc1`, the cytotoxicity call in the experiment on HSkMC and with HepG2 was “active” in each case. Besides, the growth inhibition call with S. aureus RN4220 is “inactive”.

As to `C[C@H]1CN([C@@H](C)CO)S(=O)(=O)c2ccc(-c3cccc(C#N)c3)cc2O[C@H]1CN(C)C(=O)c1cccnc1`, the cytotoxicity call in the experiment on HSkMC and in the experiment with HepG2 was “inactive” each time. Further, the growth inhibition call with S. aureus RN4220 was “inactive”.

`C[C@@H]1CCCCO[C@H](CN(C)Cc2ccc(Cl)c(Cl)c2)[C@@H](C)CN([C@@H](C)CO)C(=O)c2cc(NC(=O)C3CCCCC3)ccc2O1`: the cytotoxicity call in the experiment on HSkMC and in the experiment on HepG2 was “active” in each case. The growth inhibition call in the experiment on S. aureus RN4220 is “inactive”.

For the compound `COc1ccccc1-c1cnc2c(c1)C(=O)N([C@H](C)CO)C[C@@H](C)[C@H](CN(C)C(=O)c1cccnc1)O2`, the cytotoxicity call in the experiment with HSkMC and with HepG2 was “inactive” in each case. In addition, the growth inhibition call in the experiment with S. aureus RN4220 was “inactive”.

For `O=C(C[C@H]1CC[C@@H]2[C@H](COC[C@H](O)CN2S(=O)(=O)c2cccc(Cl)c2)O1)N1CCOCC1`, the cytotoxicity call in the experiment with HSkMC and with HepG2 was “inactive” throughout. Besides, the growth inhibition call in the experiment with S. aureus RN4220 was “inactive”.

Take `CC(=O)N1[C@@H]2Cn3c(cccc3=O)[C@H]1[C@@H](C(=O)N1CCc3ccccc3C1)[C@@H]2CO`: the cytotoxicity call in the experiment on HSkMC (human skeletal muscle cells) and in the experiment with HepG2 was “inactive” throughout. Moreover, the growth inhibition call in the experiment on S. aureus RN4220 is “inactive”.
